Among the data in article PMC4081100 are binding signal values, retold here.

The list shows a part of the results, in another mix than the full data. At the low end of the ranking the order means little.

One assay concerns the target T1, GST-NAP(1-166) (UniProt O49255).
T1 sequence: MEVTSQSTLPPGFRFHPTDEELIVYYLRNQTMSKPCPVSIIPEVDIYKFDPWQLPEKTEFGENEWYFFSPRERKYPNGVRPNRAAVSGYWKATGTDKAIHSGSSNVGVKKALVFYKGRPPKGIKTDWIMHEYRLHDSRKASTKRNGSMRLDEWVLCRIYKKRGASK
The experiment in a line: universal protein binding microarray (PBM). Conditions: high values mean tight binding; double strand, one strand shown.
For the sequence GAAGGGAA, the binding signal turned out to be 0.00645 E-score.

The sequence AACGTAAT returned a binding signal of 0.286 E-score.

Take GAAGGAAA: the binding signal was 0 E-score.

GTAAGGAA came in with a binding signal of 0.268 E-score.

Take AGCTTTCC: the binding signal was -0.0579 E-score.

Take AACGTACG: the binding signal amounted to 0.212 E-score.

In the case of AAGTAATC, the binding signal was -0.0122 E-score.

As for AGGAAAGC, the binding signal was 0.0763 E-score.

The target of the next assay is T2, GST-NST2(1-184) (UniProt Q9M274).
T2 sequence: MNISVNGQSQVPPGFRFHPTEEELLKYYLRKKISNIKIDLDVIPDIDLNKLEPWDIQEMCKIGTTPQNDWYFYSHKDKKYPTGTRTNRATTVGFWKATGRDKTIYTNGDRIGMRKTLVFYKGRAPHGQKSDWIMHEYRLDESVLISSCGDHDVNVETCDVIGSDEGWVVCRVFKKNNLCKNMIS
As to the kind of experiment: universal protein binding microarray (PBM). Conditions: high values mean tight binding; double strand, one strand shown.
With GAGGAAAA, the binding signal was -0.00498 E-score.

In turn, ACGCAAAC displayed a binding signal of 0.357 E-score.

Sequence ACGCAACT gave a binding signal of 0.39 E-score.

GTAAGTAA: the binding signal worked out at 0.239 E-score.

ACGCTTCC yielded a binding signal of 0.206 E-score.

Sequence ACGTAACG yielded a binding signal of 0.272 E-score.

With AACGTAAT, the binding signal came to 0.309 E-score.

For the sequence GAAGGAAA, the binding signal amounted to 0.214 E-score.

On to AGCTTTCC, for which the binding signal is 0.0462 E-score.

On to AACACGCC, for which the binding signal worked out at 0.144 E-score.

For a further assay, the target named is T3, GST-NTL8 NAC domain (UniProt Q9XIN7).
T3 sequence: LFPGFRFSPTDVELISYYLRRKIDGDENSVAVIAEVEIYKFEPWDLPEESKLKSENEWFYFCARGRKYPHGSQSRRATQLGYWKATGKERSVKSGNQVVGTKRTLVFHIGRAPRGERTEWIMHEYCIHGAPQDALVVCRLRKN
The experiment in a line: universal protein binding microarray (PBM). Conditions: high values mean tight binding; double strand, one strand shown.
On to ACGCCATC, for which the binding signal was found to be 0.0371 E-score.

Regarding GAGGAAAA, the binding signal is 0.402 E-score.

The sequence ACGTAACA displayed a binding signal of 0.205 E-score.

Take ATGCCGTA: the binding signal turned out to be 0.0526 E-score.

As to ATGCGTAA, the binding signal was 0.0345 E-score.

Sequence TGAAGGAA displayed a binding signal of 0.469 E-score.

AGCGTAAA yielded a binding signal of 0.0199 E-score.

For the sequence ACGCAACT, the binding signal amounted to 0.0824 E-score.

For GTAAGTAA, the binding signal was 0.195 E-score.

Take GTACGTTA: the binding signal was -0.127 E-score.

For CACGCTTC, the binding signal was -0.00272 E-score.

In the case of CACGCTAA, the binding signal came out at 0.0471 E-score.

ACCTTAAC came in with a binding signal of 0.16 E-score.

Consider ACGCTTCC, for which the binding signal worked out at 0.0233 E-score.

CTTGCGTC: the binding signal came to 0.0218 E-score.

GCGTAATA: the binding signal is -0.0172 E-score.

In turn, CGTTTCCC had a binding signal of 0.422 E-score.

GGAAGTAA registered a binding signal of 0.203 E-score.

CACGTTAC had a binding signal of 0.0995 E-score.

CCCCACCC had a binding signal of 0.277 E-score.

GCAAGAAA had a binding signal of 0.229 E-score.

In turn, ACGTAACG came in with a binding signal of 0.118 E-score.

Take AACGTAAT: the binding signal came to 0.114 E-score.

On to TAGCGTAA, for which the binding signal stood at 0.0186 E-score.

Regarding ACGCTATC, the binding signal is -0.0999 E-score.

Consider GAAGGAAA, for which the binding signal was found to be 0.485 E-score.

In turn, GTAAGGAA showed a binding signal of 0.392 E-score.

As to AGCTTTCC, the binding signal stood at 0.434 E-score.

As to AACGTACG, the binding signal was -0.011 E-score.

In the case of CTACACGC, the binding signal worked out at 0.00388 E-score.

The sequence AACACGCC came in with a binding signal of 0.00662 E-score.

Sequence AAGTAATC came in with a binding signal of 0.328 E-score.

AGGAAAGC came in with a binding signal of 0.436 E-score.

The next assay deals with T4, GST-VND3 NAC domain (UniProt Q9FH59).
T4 sequence: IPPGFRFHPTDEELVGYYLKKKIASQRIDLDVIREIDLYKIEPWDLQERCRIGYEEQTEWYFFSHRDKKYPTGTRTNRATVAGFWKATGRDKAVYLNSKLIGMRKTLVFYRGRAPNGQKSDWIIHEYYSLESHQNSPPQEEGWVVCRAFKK
The experiment in a line: universal protein binding microarray (PBM). Conditions: transcription factors of Arabidopsis thaliana; high values mean tight binding; most listed sequences are background and not binding sites; double strand, one strand shown.
Take ACGCCATC: the binding signal is 0.125 E-score.

With CCACACGC, the binding signal is 0.163 E-score.

GAGGAAAA showed a binding signal of 0.12 E-score.

Sequence ACGCAAAC gave a binding signal of 0.378 E-score.

As to ACGTAACA, the binding signal was 0.41 E-score.

ACCCCGCC: the binding signal worked out at 0.0494 E-score.

In turn, ATGCCGTA yielded a binding signal of 0.412 E-score.

Sequence ATGCGTAA returned a binding signal of 0.217 E-score.

TGAAGGAA gave a binding signal of 0.0335 E-score.

In the case of AGCGTAAA, the binding signal was 0.15 E-score.

The sequence ACGCAACT registered a binding signal of 0.462 E-score.

As to GTAAGTAA, the binding signal amounted to 0.279 E-score.

For GTACGTTA, the binding signal is 0.253 E-score.

GTGAAGAA yielded a binding signal of 0.304 E-score.

CACGCTTC: the binding signal was found to be 0.111 E-score.

With CACGCTAA, the binding signal is 0.0422 E-score.

Consider ACCTTAAC, for which the binding signal is 0.156 E-score.

ACGCTTCC registered a binding signal of 0.0151 E-score.

CTTGCGTC showed a binding signal of 0.0748 E-score.

With GCGTAATA, the binding signal was 0.203 E-score.

As for CGTTTCCC, the binding signal came to 0.179 E-score.

In turn, GGAAGTAA came in with a binding signal of 0.133 E-score.

Consider CACGTTAC, for which the binding signal came to 0.319 E-score.

As to CCCCACCC, the binding signal was -0.0158 E-score.

GCAAGAAA: the binding signal stood at 0.12 E-score.

For ACGTAACG, the binding signal was determined as 0.359 E-score.

As for ACCTTTCC, the binding signal was determined as 0.049 E-score.

GAAGGGAA displayed a binding signal of 0.0307 E-score.

The sequence AACGTAAT had a binding signal of 0.359 E-score.

Sequence TAGCGTAA showed a binding signal of 0.297 E-score.

As for ACGCTATC, the binding signal was -0.00462 E-score.

With GAAGGAAA, the binding signal is -0.0803 E-score.

Sequence GTAAGGAA displayed a binding signal of 0.231 E-score.

On to AGCTTTCC, for which the binding signal stood at 0.0376 E-score.

For AACGTACG, the binding signal was 0.308 E-score.

Regarding CTACACGC, the binding signal is 0.147 E-score.

AACACGCC came in with a binding signal of 0.1 E-score.

As for AAGTAATC, the binding signal turned out to be 0.188 E-score.

In the case of AGGAAAGC, the binding signal worked out at 0.00239 E-score.
